Data from PMC4336329 (PLoS ONE, 2015).
The campaign covered roughly 310,000 compounds. About 14,000 (4.5%) showed an effect of 50% or more. The effect is printed as a negative number. The list shows a part of the results.

target: human ether-à-go-go-related gene (hERG) potassium channel (human, UniProt Q12809); experiment: primary screen, population patch clamp on CHO cells stably expressing hERG
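Also: peak tail current of the secondary pulse compared with the same well before compound.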

human ether-à-go-go-related gene (hERG) potassium channel, sequence (Q12809 whole entry, looked up): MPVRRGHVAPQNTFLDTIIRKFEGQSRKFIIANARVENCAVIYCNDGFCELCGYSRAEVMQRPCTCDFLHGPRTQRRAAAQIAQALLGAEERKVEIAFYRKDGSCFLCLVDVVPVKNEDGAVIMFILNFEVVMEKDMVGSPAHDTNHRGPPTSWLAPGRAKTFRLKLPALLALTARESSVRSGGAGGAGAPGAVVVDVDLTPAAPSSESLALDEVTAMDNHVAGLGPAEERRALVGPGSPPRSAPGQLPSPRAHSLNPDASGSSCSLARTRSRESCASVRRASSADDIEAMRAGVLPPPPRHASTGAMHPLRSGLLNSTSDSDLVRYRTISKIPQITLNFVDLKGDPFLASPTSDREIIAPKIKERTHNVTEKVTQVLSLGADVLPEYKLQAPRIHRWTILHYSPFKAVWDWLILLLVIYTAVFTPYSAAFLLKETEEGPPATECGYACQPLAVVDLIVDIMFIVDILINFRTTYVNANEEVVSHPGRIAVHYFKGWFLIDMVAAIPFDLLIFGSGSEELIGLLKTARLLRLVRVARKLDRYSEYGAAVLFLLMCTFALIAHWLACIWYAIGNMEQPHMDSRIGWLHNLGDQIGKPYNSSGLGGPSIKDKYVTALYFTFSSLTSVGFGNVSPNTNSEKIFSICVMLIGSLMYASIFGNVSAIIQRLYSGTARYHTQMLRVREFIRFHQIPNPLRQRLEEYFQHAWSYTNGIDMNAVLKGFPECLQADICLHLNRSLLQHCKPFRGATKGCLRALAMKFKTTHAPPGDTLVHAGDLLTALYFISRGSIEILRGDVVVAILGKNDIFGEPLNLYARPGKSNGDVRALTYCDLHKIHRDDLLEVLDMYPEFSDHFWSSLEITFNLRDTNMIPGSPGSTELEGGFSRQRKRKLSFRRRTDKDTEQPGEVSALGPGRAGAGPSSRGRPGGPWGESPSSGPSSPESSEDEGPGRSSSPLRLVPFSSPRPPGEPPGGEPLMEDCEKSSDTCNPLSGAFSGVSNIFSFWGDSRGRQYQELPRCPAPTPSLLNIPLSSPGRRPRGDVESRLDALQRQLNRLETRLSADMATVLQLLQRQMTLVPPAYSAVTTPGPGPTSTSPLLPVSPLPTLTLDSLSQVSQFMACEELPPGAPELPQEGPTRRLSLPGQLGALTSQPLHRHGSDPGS

| Structure (SMILES) | hERG current change (%, negative = inhibition) at 10uM [%] |
| --- | --- |
| O=C(Cn1ncc(N2CCOCC2)c(Br)c1=O)c1ccc(Cl)cc1 | -35 |
| O=C1C=C(N2CCN(C3=CC(=O)CCC3)CC2)CCC1 | 8.21 |
| CC(C)(C)c1ccc(C(=O)Nc2c3c(nn2C(C)(C)C)CS(=O)(=O)C3)cc1 | 10.7 |
| C=CCNC(=S)NNC(=O)c1cccn(Cc2ccc(Cl)c(Cl)c2)c1=O | 2.91 |
| CC1CCN(c2ncnc3c2cnn3-c2ccccc2)CC1 | 21.2 |
| O=C(O)c1ccccc1NS(=O)(=O)c1ccc2c(c1)OCCO2 | 29.2 |
| CC(=O)Nc1ccc(NC(=O)c2c([N+](=O)[O-])cnn2C)cc1 | 17.9 |
| CCCNC(=S)N1CCC(NC(=O)C2CCCCC2)CC1 | 8.48 |
| CN(C)c1ccc(C(CNC(=O)c2ccc(-c3ccccc3)cc2)N2CCOCC2)cc1 (stereo not shown) | 8.17 |
| Cc1ccc(S(=O)(=O)N2CCOCC2)cc1NC(=O)CSc1nnc(N)s1 | 31.7 |
| Cn1c(-c2cccc(F)c2)nc2c1c(=O)[nH]c(=O)n2Cc1ccccc1 | 19.1 |
| Cc1cccc2[nH]c3c(N4CCN(C(=O)c5ccco5)CC4)ncnc3c12 | -27 |
| O=C(NCc1ccncc1)c1cccc(S(=O)(=O)NCc2ccccc2)c1 | -12.7 |
| COc1ccc(OC)c(CNC(=O)CCS(=O)(=O)c2ccc3c(c2)oc(=O)n3C)c1 | 5.32 |
| COc1ccc(OC)c(/C=N/NC(=O)CC2C(=O)NN=C2C)c1 (stereo not shown) | 7.05 |
| Cc1cnc(CN(C)C(=O)c2cc(COc3c(F)cccc3F)on2)[nH]1 | -9.29 |
| CNC(=S)N1N=C(c2ccc(Br)cc2)CC1c1ccc(N(C)C)cc1 (stereo not shown) | 1.96 |
| COc1ccc(OC(=O)c2cc(S(=O)(=O)N3CCCC3)ccc2Cl)cc1 | 3.96 |
| CCNc1nc(NC(C)CC)nc(ON=C(C)C)n1 (stereo not shown) | -2.23 |
| O=c1c(Cc2ccc(Cl)cc2)c(O)ccn1Cc1ccncc1 | 0.535 |
| Cc1ccc(NC(=O)CN2CCc3ccccc3C2)cc1C | -5.18 |
| O=C(NCCC1=CCCCC1)C1CCCN(S(=O)(=O)c2ccc(F)cc2)C1 (stereo not shown) | 19.6 |
| O=C(NC1CC1)c1cc2cc(Br)ccc2s1 | 20.9 |
| CCN=C1SC(CC(=O)Nc2sc3c(c2C#N)CCCC3)C(=O)N1CC (stereo not shown) | -6.84 |
| COc1cc(C(=O)OCc2ccccc2C#N)ccc1OCC(=O)N1CCOCC1 | -25.7 |
